Reference: the antibiotic and cytotoxicity screens of Wong et al. (2023)
Some of the results follow.

Columns and labels:
[1] = system: HSkMC (human skeletal muscle cells); assay: cytotoxicity call (relative viability < 0.9); details: 10 µM
[2] = system: HepG2; assay: cytotoxicity call (relative viability < 0.9); details: 10 µM
[3] = system: S. aureus RN4220; assay: growth inhibition call (relative growth <= 0.2); details: 50 µM

| Structure (SMILES) | cytotoxicity call [1] | cytotoxicity call [2] | growth inhibition call [3] |
| --- | --- | --- | --- |
| CC(C)NC(=O)Nc1cccc2c1O[C@H](CN(C)S(=O)(=O)c1ccccc1)[C@H](C)CN([C@H](C)CO)C2=O | inactive | inactive | inactive |
| CO[C@H]1C[C@@H]2CC[C@@H](C)[C@@](O)(O2)C(=O)C(=O)N2CCCC[C@H]2C(=O)O[C@H]([C@H](C)C[C@@H]2CC[C@@H](O)[C@H](OC)C2)CC(=O)[C@H](C)/C=C(\C)[C@@H](O)[C@@H](OC)C(=O)[C@H](C)C[C@H](C)/C=C/C=C/C=C/1C | inactive | inactive | inactive |
| COCC(=O)Nc1ccc2c(c1)OC[C@H](C)N(C(=O)c1ccccc1F)C[C@H](C)[C@H](OC)CN(C)C2=O | inactive | inactive | inactive |
| CO[C@H](CN(C)C(=O)c1ccc2c(c1)OCO2)[C@H](C)CN([C@@H](C)CO)S(=O)(=O)c1ccc(C)cc1 | inactive | inactive | inactive |
| C[C@H]1CN([C@@H](C)CO)C(=O)Cc2cc(NS(=O)(=O)c3ccc(F)cc3)ccc2O[C@@H]1CN(C)Cc1ccc(Cl)c(Cl)c1 | inactive | active | inactive |
| CCc1oc2ccccc2c1C(=O)c1cc(Br)c(O)c(Br)c1 | inactive | active | active |
| Cc1cc(=O)[nH][nH]1 | inactive | inactive | inactive |
| COc1cccc(S(=O)(=O)N(C)C[C@H]2OCc3cn(nn3)CCCC(=O)N([C@@H](C)CO)C[C@@H]2C)c1 | inactive | inactive | inactive |
| C[C@@H]1CN([C@H](C)CO)S(=O)(=O)c2ccc(C#CCN(C)C)cc2O[C@@H]1CN(C)C(=O)C1CCCCC1 | inactive | inactive | inactive |
| CCCC#Cc1ccc2c(c1)O[C@H](CN(C)S(=O)(=O)c1cccc(OC)c1)[C@@H](C)CN([C@@H](C)CO)S2(=O)=O | inactive | inactive | inactive |
| COc1ccc(C#Cc2ccc3c(c2)[C@]2(C(=O)N3)[C@H](C(N)=O)[C@H]3C(=O)O[C@H](c4ccccc4)[C@H](c4ccccc4)N3[C@@H]2c2ccc(OCCO)cc2)cc1 | inactive | inactive | inactive |
| O=C(C[C@H]1CC[C@@H]2[C@H](COC[C@@H](O)CN2S(=O)(=O)c2cccc(F)c2)O1)NCc1ccc2c(c1)OCO2 | inactive | inactive | inactive |
| COc1ccc(CN(C)C[C@H]2OCCCC[C@@H](C)Oc3ccc(NC(=O)C4CCCCC4)cc3C(=O)N([C@@H](C)CO)C[C@@H]2C)cc1 | inactive | inactive | inactive |
| Cc1ccc(S(=O)(=O)N(C)C[C@@H]2Oc3ccc(NS(=O)(=O)c4c(C)noc4C)cc3C(=O)N([C@@H](C)CO)C[C@@H]2C)cc1 | inactive | inactive | inactive |
| COc1ccc(CN(C)C[C@H]2OCCCC[C@@H](C)Oc3ccc(NC(=O)c4ccccc4)cc3C(=O)N([C@@H](C)CO)C[C@H]2C)cc1 | inactive | inactive | inactive |
| Cc1ccc(=O)[nH]n1 | inactive | inactive | inactive |
| C[C@H]1CN([C@@H](C)CO)C(=O)c2cc(NC(=O)CCCN(C)C)ccc2O[C@@H]1CN(C)S(=O)(=O)c1cccs1 | inactive | inactive | inactive |
| C[C@H](CO)N1C[C@H](C)[C@H](CN(C)Cc2ccc3c(c2)OCO3)OCCCC[C@H](C)Oc2ccc(NC(=O)CCC(F)(F)F)cc2C1=O | inactive | inactive | inactive |
| CN(C)CCCNC(=O)C[C@@H]1CC[C@@H]2[C@@H](COc3ccc(NC(=O)c4ccc5c(c4)OCO5)cc3C(=O)N2C)O1 | inactive | inactive | inactive |
| C[C@H]1CN([C@@H](C)CO)C(=O)c2cccc(NC(=O)NC3CCCCC3)c2O[C@H]1CN(C)Cc1ccc(Oc2ccccc2)cc1 | inactive | inactive | inactive |
| COCC#Cc1ccc2c(c1)O[C@H](CN(C)S(=O)(=O)c1ccc(F)cc1)[C@H](C)CN([C@@H](C)CO)S2(=O)=O | inactive | inactive | inactive |
| CC(C)CC#Cc1ccc2c(c1)O[C@H](CN(C)CC1CCOCC1)[C@H](C)CN([C@H](C)CO)S2(=O)=O | inactive | inactive | inactive |
| COc1ccc(CN(C)C[C@H]2Oc3ccc(NS(=O)(=O)c4c(C)noc4C)cc3C(=O)N([C@H](C)CO)C[C@H]2C)cc1 | inactive | inactive | inactive |
| C[C@@H]1CCCCO[C@@H](CN(C)Cc2ccccc2)[C@@H](C)CN([C@@H](C)CO)C(=O)c2cc(NC(=O)Nc3ccc(F)cc3)ccc2O1 | inactive | inactive | inactive |
| COCC(=O)N1C[C@H](C)[C@H](OC)CN(C)C(=O)c2ccc(NC(=O)c3ccc(F)cc3)cc2OC[C@H]1C | inactive | inactive | inactive |
| C[C@@H]1CN([C@H](C)CO)C(=O)Cc2cc(NC(=O)C3CCCCC3)ccc2O[C@@H]1CN(C)C(=O)Nc1ccc(C(F)(F)F)cc1 | inactive | inactive | inactive |
| C[C@H](CO)N1C[C@H](C)[C@H](CN(C)Cc2ccc(Cl)c(Cl)c2)OCc2ccccc2-c2ccccc2C1=O | inactive | inactive | inactive |
